Laboratory results from the supplement of paper PMC8728848.
The other results are listed elsewhere or left out.

What was measured:
Assay in all cases: glycan array binding signal (z-score within array); higher = stronger binding
Details in all cases: glycan notation: IUPAC condensed, linker removed
[1] = target: Neu5Ac(a2-3)Gal(b1-3)GlcNAc6S
In short: (§1)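 From the Consortium for Functional Glycomics database, 3228 arrays were curated, keeping only those whose protein sequence was available. Binding is given as a within-array Z-score averaged across arrays sharing a protein sequence and across linkers. Negative Z-scores can be read as non-binding.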

[2] = target: Neu5Ac(a2-3)Gal(b1-3)[Fuc(a1-4)]GlcNAc
In short: as §1

[3] = target: Neu5Ac(a2-3)Gal(b1-3)[Fuc(a1-4)]GlcNAc(b1-3)Gal(b1-3)[Fuc(a1-4)]GlcNAc
In short: as §1

[4] = target: Neu5Ac(a2-3)Gal(b1-3)[Fuc(a1-4)]GlcNAc(b1-3)Gal(b1-4)[Fuc(a1-3)]GlcNAc
In short: as §1

[5] = target: Neu5Ac(a2-3)Gal(b1-3)[GlcNAc(b1-6)]GalNAc
In short: as §1

[6] = target: Neu5Ac(a2-3)Gal(b1-3)[Neu5Ac(a2-6)]GalNAc
In short: as §1

[7] = target: Neu5Ac(a2-3)Gal(b1-3)[Neu5Ac(a2-6)]GlcNAc(b1-3)[Fuc(a1-3)[Gal(b1-4)]GlcNAc(b1-6)]Gal(b1-4)Glc
In short: as §1

[8] = target: Neu5Ac(a2-3)Gal(b1-3)]Neu5Ac(a2-3)Gal(b1-4)]GlcNAc
In short: as §1

Neu5Ac(a2-3)Gal(b1-4)Glc = target: Neu5Ac(a2-3)Gal(b1-4)Glc
In short: as §1

[9] = target: Neu5Ac(a2-3)Gal(b1-4)GlcNAc
In short: as §1

[10] = target: Neu5Ac(a2-3)Gal(b1-4)GlcNAc(b1-2)Man
In short: as §1

[11] = target: Neu5Ac(a2-3)Gal(b1-4)GlcNAc(b1-2)Man(a1-3)[GlcNAc(b1-4)][Neu5Ac(a2-3)Gal(b1-4)GlcNAc(b1-2)Man(a1-6)]Man(b1-4)GlcNAc(b1-4)GlcNAc
In short: as §1

[12] = target: Neu5Ac(a2-3)Gal(b1-4)GlcNAc(b1-2)Man(a1-3)[Neu5Ac(a2-3)Gal(b1-4)GlcNAc(b1-2)Man(a1-6)]Man(b1-4)GlcNAc(b1-4)GlcNAc
In short: as §1

[13] = target: Neu5Ac(a2-3)Gal(b1-4)GlcNAc(b1-2)Man(a1-3)[Neu5Ac(a2-3)Gal(b1-4)GlcNAc(b1-2)Man(a1-6)]Man(b1-4)GlcNAc(b1-4)[Fuc(a1-6)]GlcNAc
In short: as §1

[14] = target: Neu5Ac(a2-3)Gal(b1-4)GlcNAc(b1-2)Man(a1-3)[Neu5Ac(a2-6)Gal(b1-4)GlcNAc(b1-2)Man(a1-6)]Man(b1-4)GlcNAc(b1-4)GlcNAc
In short: as §1

[15] = target: Neu5Ac(a2-3)Gal(b1-4)GlcNAc(b1-2)[Neu5Ac(a2-3)Gal(b1-4)GlcNAc(b1-4)]Man(a1-3)[GlcNAc(b1-4)][Neu5Ac(a2-3)Gal(b1-4)GlcNAc(b1-2)[Neu5Ac(a2-3)Gal(b1-4)GlcNAc(b1-6)]Man(a1-6)]Man(b1-4)GlcNAc(b1-4)GlcNAc
In short: as §1

[16] = target: Neu5Ac(a2-3)Gal(b1-4)GlcNAc(b1-2)[Neu5Ac(a2-3)Gal(b1-4)GlcNAc(b1-4)]Man(a1-3)[GlcNAc(b1-4)][Neu5Ac(a2-3)Gal(b1-4)GlcNAc(b1-4)Man(a1-6)]Man(b1-4)GlcNAc(b1-4)GlcNAc
In short: as §1

[17] = target: Neu5Ac(a2-3)Gal(b1-4)GlcNAc(b1-2)[Neu5Ac(a2-3)Gal(b1-4)GlcNAc(b1-6)]Man(a1-6)[Neu5Ac(a2-3)Gal(b1-4)GlcNAc(b1-2)Man(a1-3)][GlcNAc(b1-4)]Man(b1-4)GlcNAc(b1-4)GlcNAc
In short: as §1

[18] = target: Neu5Ac(a2-3)Gal(b1-4)GlcNAc(b1-3)Gal
In short: as §1

[19] = target: Neu5Ac(a2-3)Gal(b1-4)GlcNAc(b1-3)Gal(b1-3)GlcNAc
In short: as §1

[20] = target: Neu5Ac(a2-3)Gal(b1-4)GlcNAc(b1-3)Gal(b1-4)GlcNAc
In short: as §1

[21] = target: Neu5Ac(a2-3)Gal(b1-4)GlcNAc(b1-3)Gal(b1-4)GlcNAc(b1-2)Man(a1-3)[Neu5Ac(a2-3)Gal(b1-4)GlcNAc(b1-3)Gal(b1-4)GlcNAc(b1-2)Man(a1-6)]Man(b1-4)GlcNAc(b1-4)GlcNAc
In short: as §1

[22] = target: Neu5Ac(a2-3)Gal(b1-4)GlcNAc(b1-3)Gal(b1-4)GlcNAc(b1-3)Gal(b1-4)GlcNAc
In short: as §1

[23] = target: Neu5Ac(a2-3)Gal(b1-4)GlcNAc(b1-3)Gal(b1-4)GlcNAc(b1-3)Gal(b1-4)GlcNAc(b1-2)Man(a1-3)[Neu5Ac(a2-3)Gal(b1-4)GlcNAc(b1-3)Gal(b1-4)GlcNAc(b1-3)Gal(b1-4)GlcNAc(b1-2)Man(a1-6)]GalNAc
In short: as §1

[24] = target: Neu5Ac(a2-3)Gal(b1-4)GlcNAc(b1-3)Gal(b1-4)GlcNAc(b1-3)GalNAc
In short: as §1

[25] = target: Neu5Ac(a2-3)Gal(b1-4)GlcNAc(b1-3)Gal(b1-4)GlcNAc(b1-3)[Neu5Ac(a2-3)Gal(b1-4)GlcNAc(b1-3)Gal(b1-4)GlcNAc(b1-6)]GalNAc
In short: as §1

[26] = target: Neu5Ac(a2-3)Gal(b1-4)GlcNAc(b1-3)Gal(b1-4)GlcNAc(b1-6)[Gal(b1-3)]GalNAc
In short: as §1

[27] = target: Neu5Ac(a2-3)Gal(b1-4)GlcNAc(b1-3)Gal(b1-4)[Fuc(a1-3)]GlcNAc
In short: as §1

[28] = target: Neu5Ac(a2-3)Gal(b1-4)GlcNAc(b1-3)GalNAc
In short: as §1

[29] = target: Neu5Ac(a2-3)Gal(b1-4)GlcNAc(b1-3)[Neu5Ac(a2-3)Gal(b1-4)GlcNAc(b1-6)]GalNAc
In short: as §1

[30] = target: Neu5Ac(a2-3)Gal(b1-4)GlcNAc(b1-6)GalNAc
In short: as §1

[31] = target: Neu5Ac(a2-3)Gal(b1-4)GlcNAc(b1-6)[Gal(b1-3)]GalNAc
In short: as §1

[32] = target: Neu5Ac(a2-3)Gal(b1-4)GlcNAc(b1-6)[Neu5Ac(a2-3)Gal(b1-3)]GalNAc
In short: as §1

[33] = target: Neu5Ac(a2-3)Gal(b1-4)GlcNAc6S
In short: as §1

[34] = target: Neu5Ac(a2-3)Gal(b1-4)[Fuc(a1-3)]GlcNAc
In short: as §1

[35] = target: Neu5Ac(a2-3)Gal(b1-4)[Fuc(a1-3)]GlcNAc(b1-2)Man
In short: as §1

[36] = target: Neu5Ac(a2-3)Gal(b1-4)[Fuc(a1-3)]GlcNAc(b1-3)Gal
In short: as §1

[37] = target: Neu5Ac(a2-3)Gal(b1-4)[Fuc(a1-3)]GlcNAc(b1-3)Gal(b1-4)GlcNAc
In short: as §1

[38] = target: Neu5Ac(a2-3)Gal(b1-4)[Fuc(a1-3)]GlcNAc(b1-3)Gal(b1-4)[Fuc(a1-3)]GlcNAc(b1-3)Gal(b1-4)[Fuc(a1-3)]GlcNAc
In short: as §1

[39] = target: Neu5Ac(a2-3)Gal(b1-4)[Fuc(a1-3)]GlcNAc(b1-3)GalNAc
In short: as §1

[40] = target: Neu5Ac(a2-3)Gal(b1-4)[Fuc(a1-3)]GlcNAc(b1-6)[Gal(b1-3)]GalNAc
In short: as §1

[41] = target: Neu5Ac(a2-3)Gal(b1-4)[Fuc(a1-3)]GlcNAc(b1-6)[Neu5Ac(a2-3)Gal(b1-3)]GalNAc
In short: as §1

[42] = target: Neu5Ac(a2-3)Gal(b1-4)[Fuc(a1-3)]GlcNAc6S
In short: as §1

[43] = target: Neu5Ac(a2-3)Gal6S(b1-4)GlcNAc
In short: as §1

[44] = target: Neu5Ac(a2-3)Gal6S(b1-4)[Fuc(a1-3)]GlcNAc
In short: as §1

B1: rCnSL-A (Clitocybe nebularis) (protein)
chain: VNPNLPGPNDVFVGFRGTNNIVGAIYEKDGIKDTPLNNGADAEMGPGSYITDGLFTARIFASGSAGNNPGTTATVCKIYASGVQWRGAPKGYIPVAYFGNGPTAEQRRQTYLRTLGLPGTAIRFGNLNTNPGQGPTAPRQMVVPPGPLRSLLKASCFPAADTRLPQTLHYFEKRVDWNIITAADSQTWGH
glycan array binding signal (z-score) [1]: -0.024
glycan array binding signal (z-score) [2]: -0.233
glycan array binding signal (z-score) [3]: -0.21
glycan array binding signal (z-score) [4]: -0.191
glycan array binding signal (z-score) [5]: -0.263
glycan array binding signal (z-score) [6]: -0.305
glycan array binding signal (z-score) [7]: -0.182
glycan array binding signal (z-score) [8]: -0.201
glycan array binding signal (z-score) (Neu5Ac(a2-3)Gal(b1-4)Glc): -0.078
glycan array binding signal (z-score) [9]: -0.381
glycan array binding signal (z-score) [10]: -0.112
glycan array binding signal (z-score) [11]: -0.207
glycan array binding signal (z-score) [12]: -0.343
glycan array binding signal (z-score) [13]: -0.158
glycan array binding signal (z-score) [14]: -0.25
glycan array binding signal (z-score) [15]: -0.262
glycan array binding signal (z-score) [16]: -0.265
glycan array binding signal (z-score) [17]: -0.327
glycan array binding signal (z-score) [18]: -0.357
glycan array binding signal (z-score) [19]: -0.298
glycan array binding signal (z-score) [20]: -0.151
glycan array binding signal (z-score) [21]: 0.262
glycan array binding signal (z-score) [22]: -0.388
glycan array binding signal (z-score) [23]: 0.765
glycan array binding signal (z-score) [24]: -0.238
glycan array binding signal (z-score) [25]: -0.017
glycan array binding signal (z-score) [26]: -0.155
glycan array binding signal (z-score) [27]: -0.21
glycan array binding signal (z-score) [28]: -0.249
glycan array binding signal (z-score) [29]: -0.128
glycan array binding signal (z-score) [30]: -0.254
glycan array binding signal (z-score) [31]: -0.122
glycan array binding signal (z-score) [32]: -0.165
glycan array binding signal (z-score) [33]: -0.227
glycan array binding signal (z-score) [34]: -0.266
glycan array binding signal (z-score) [35]: -0.547
glycan array binding signal (z-score) [36]: -0.229
glycan array binding signal (z-score) [37]: -0.169
glycan array binding signal (z-score) [38]: 0.07
glycan array binding signal (z-score) [39]: -0.056
glycan array binding signal (z-score) [40]: -0.138
glycan array binding signal (z-score) [41]: -0.116
glycan array binding signal (z-score) [42]: -0.17
glycan array binding signal (z-score) [43]: -0.297
glycan array binding signal (z-score) [44]: -0.252
